Among all 48,000 compounds or so, about 450 (0.94%) were called active. About 19% were inconclusive and are not listed. The call rests on the fitted dose curve; in most records, active means well fitted inhibition curve with a large enough effect; inconclusive means small, poorly fitted or top-dose-only effect; inactive means no such curve, though single readings can be large or run the other way. This is one part of the list.
Test: Primary qHTS for Identification of Small Molecule Inhibitors of Huntingtin Promoter Activity; further: nearly all actives have a fitted effect of over 50% in size
Conditions: HEK293 HTT promoter firefly luciferase reporter (activity 0% = vehicle and -100% = no light), 24 h; series mostly up to 57.5 µM; activity change, negative = inhibition: at the top concentration
How it was run: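 HEK293 Fluc reporter, 2,500 cells/well, 24 h pre-culture; cpds up to 57.5 uM final, 24 h 37 degrees C; Dual-Glo, 10 min RT; normalized vehicle = 0%, zero RLU = -100%.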

Activity change, negative = inhibition, inactive:
CC(C)(C)c1ccc(C(=O)NC(Cc2c[nH]c3ccccc23)C(=O)OCC(=O)c2ccc(Cl)cc2)cc1 (stereo unspecified) -21%
Cc1ccc(CNC(=O)c2cccc(-n3cnc4cccnc43)c2)cc1 -20.8%
COc1cccc(C(=O)Nc2c3c(nn2-c2ccc(Cl)cc2)CS(=O)(=O)C3)c1 -11.4%
CCc1ccc(NC(=O)CCNS(=O)(=O)c2ccc3c(c2)CCCC(=O)N3)cc1 -15.3%
OC(C#CCN1CCCC1)(c1ccccc1)c1ccccc1 -2.35%
COC(=O)c1ccccc1NC(=O)c1cc2c(-c3ccc(OC)c(OC)c3)nn(C)c2s1 7.71%
C=CCC(CC=C)(CNC(=O)C(=O)Nc1ccc(C(=O)OCC)cc1)c1ccccc1 -17.1%
Cc1ccc(-c2nc3ccccn3c2Nc2ccc3c(c2)OCO3)o1 9.46%
COc1ccc(-c2nn(-c3cccc([N+](=O)[O-])c3)c3c2cnc2cc4c(cc23)OCO4)cc1 -27.2%
CCCN(C(=O)c1cc2c(s1)-c1c(C)cccc1OC2)c1ccc(OCC)cc1 -5.01%
CC(C)c1ccc(Nc2nc3c(S(=O)(=O)c4ccc(Br)cc4)nnn3c3ccsc23)cc1 -17%
CCSc1nnnn1-c1cccc(C(=O)O)c1 -1.37%
CCOC(=O)c1cc(-c2ccc(C)cc2)n(CC(=O)NC2CCCCCC2)c1C -9.52%
Cc1cc2nc(-c3cccc(NC(=O)CSc4ccc(Cl)cc4)c3)oc2cc1C 70.8%
Cc1cccc(-c2c3c(=O)n(C)c(=O)n(C)c3c3cnc4ccccc4n23)c1 -6.21% [at 11.5 µM]
Cc1c(NC(=O)Nc2ccc(C#N)cc2)c(=O)n(-c2ccccc2)n1C -17.8%
CCC(=O)Nc1sc2c(c1C(=O)Nc1cccc(C)c1)CCCC2 -29.2%
COc1ccccc1Nc1nn2c(=O)c3ccc(C(=O)NC(C)c4ccccc4)cc3nc2s1 (stereo unspecified) -15.1%
Cc1ccc(NC(=O)Cn2cc(S(=O)(=O)c3ccccc3)c(=O)c3cc4c(cc32)OCO4)cc1 -27.7%
Cc1cccc(C(=O)Nc2ccc(OCc3cc(=O)n4c5c(sc4n3)CCCC5)cc2)c1 -20.3%
CCCOC(=O)c1ccc(O)cc1 36% [at 116 µM]
Cc1cc(C)c(NC(=O)Cn2nnc(-c3nc(-c4ccccc4)no3)c2N)c(C)c1 -8.83%
Cc1cc(C)c2c(n1)SCCN2C(=O)Nc1ccc(C(=O)Nc2ccc(C(C)C)cc2)cc1 -42.7%
CCN(CC)c1ccc2cc(-c3nc(-c4cc(OC)c(OC)c(OC)c4)no3)c(=O)oc2c1 2.91%
COC(=O)c1ccccc1NC(=O)Cn1c(=O)n(CCCC(=O)NCc2ccccc2OC)c(=O)c2ccccc21 -5.48%
Cc1ccc(C)c(NC(=O)C(c2ccccc2)N2Cc3ccccc3C2=O)c1 (stereo unspecified) -27.8%
